# Measurements from the supplement of paper PMC8728848.
# The other results are listed elsewhere or left out.
# B1: Pbx2 (Cryptococcus neoformans) (protein)
# chain: AVSPLPSSTELVFYSQKRRRRRICSTATGSLSTPDPTRMTSDPYKRVGMRFSSVPRLLITFLSLLLLVSAAPPCVRFADYDSINQMFIDGGPGTKVLLCPNRLYRLSGPIIFTAADQEIATYGYPTGSERAVLRVEGRNTATAIQGDCRRCARVSVKNLVVDGNRKKLGRMRDFQLATGLVVLGGNEGQSIQNSWIKNPRGFTAIHIREGDKLQCSGARVEKNEIGPVGEEYDPEKDGDDPEMSPLGRPLADGVSIACRDSFIRDNTFRDNTDAAIVVYCSPGTLIHANHIFAQSLSAMAGILMVDSTPFNGDYTGTVVRSNIIDAVSRTIRVGIGIGPTVWSDDTETILTGGSVIGNGLKGRYMGYGIAAAGLKQWTIKDNWDEAKHEGRKSARCFDEPVNPDPIGLLYNRPTMEDCTVQSGFADHDFQYLVCIDGLYDKTNPPKHDPAPLAHDPSPTNAQEDNTVQQDGGDSKSKSIEQPREASDIEAEPSVEKMFSTGSEMMDDVLEHSHQRMHEVIDHLSRRIDILGAASAGKGSGDSKISEVLDPAMSSHLEKLQRKIEHLEFSLRSQIETAIQLRSAIQGWDQEMALVTDWEYDILLDVRHKLELSSYPHDQPLDPRLMRGQSYLNNEAVLVDDHSHPSLEGENLRAMSDRARLNANEEA
# Assays:
# Assay in all cases: glycan array binding signal (z-score within array); higher = stronger binding
# Conditions in all cases: glycan notation: IUPAC condensed, linker removed
# Gal(b1-4)Glc6S = molecular target: Gal(b1-4)Glc6S
# How it was run: (§1)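 The binding signal is a Z-score computed within each array. Data were drawn from 3228 arrays in the Consortium for Functional Glycomics database, restricted to those with a known protein sequence. Scores were averaged over arrays of the same protein sequence at different concentrations or buffers, and over linkers, and negative values can be taken as non-binding.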
# Gal(b1-4)GlcNAc = molecular target: Gal(b1-4)GlcNAc
# How it was run: as §1
# [1] = molecular target: Gal(b1-4)GlcNAc(a1-6)Gal(b1-4)GlcNAc
# How it was run: as §1
# Gal(b1-4)GlcNAc(b1-2)Man = molecular target: Gal(b1-4)GlcNAc(b1-2)Man
# How it was run: as §1
# [2] = molecular target: Gal(b1-4)GlcNAc(b1-2)Man(a1-3)Man(b1-4)GlcNAc(b1-4)GlcNAc
# How it was run: as §1
# [3] = molecular target: Gal(b1-4)GlcNAc(b1-2)Man(a1-3)[Gal(b1-4)GlcNAc(b1-2)Man(a1-6)]Man(b1-4)GlcNAc(b1-4)GlcNAc
# How it was run: as §1
# [4] = molecular target: Gal(b1-4)GlcNAc(b1-2)Man(a1-3)[Gal(b1-4)GlcNAc(b1-2)Man(a1-6)]Man(b1-4)GlcNAc(b1-4)[Fuc(a1-6)]GlcNAc
# How it was run: as §1
# [5] = molecular target: Gal(b1-4)GlcNAc(b1-2)Man(a1-3)[Gal(b1-4)GlcNAc(b1-2)Man(a1-6)][Gal(b1-4)GlcNAc(b1-4)]Man(b1-4)GlcNAc(b1-4)[Fuc(a1-6)]GlcNAc
# How it was run: as §1
# [6] = molecular target: Gal(b1-4)GlcNAc(b1-2)Man(a1-3)[Gal(b1-4)GlcNAc(b1-2)Man(a1-6)][GlcNAc(b1-4)]Man(b1-4)GlcNAc(b1-4)[Fuc(a1-6)]GlcNAc
# How it was run: as §1
# [7] = molecular target: Gal(b1-4)GlcNAc(b1-2)Man(a1-3)[GlcNAc(b1-2)Man(a1-6)]Man(b1-4)GlcNAc(b1-4)GlcNAc
# How it was run: as §1
# [8] = molecular target: Gal(b1-4)GlcNAc(b1-2)Man(a1-3)[GlcNAc(b1-4)][Gal(b1-4)GlcNAc(b1-2)Man(a1-6)]Man(b1-4)GlcNAc(b1-4)GlcNAc
# How it was run: as §1
# [9] = molecular target: Gal(b1-4)GlcNAc(b1-2)Man(a1-3)[Man(a1-6)]Man(b1-4)GlcNAc(b1-4)GlcNAc
# How it was run: as §1
# [10] = molecular target: Gal(b1-4)GlcNAc(b1-2)Man(a1-6)Man(b1-4)GlcNAc(b1-4)GlcNAc
# How it was run: as §1
# [11] = molecular target: Gal(b1-4)GlcNAc(b1-2)Man(a1-6)[GlcNAc(b1-2)Man(a1-3)]Man(b1-4)GlcNAc(b1-4)GlcNAc
# How it was run: as §1
# [12] = molecular target: Gal(b1-4)GlcNAc(b1-2)Man(a1-6)[Man(a1-3)]Man(b1-4)GlcNAc(b1-4)GlcNAc
# How it was run: as §1
# [13] = molecular target: Gal(b1-4)GlcNAc(b1-2)[Gal(b1-4)GlcNAc(b1-4)]Man(a1-3)[Gal(b1-4)GlcNAc(b1-2)Man(a1-6)]Man(b1-4)GlcNAc(b1-4)GlcNAc
# How it was run: as §1
# [14] = molecular target: Gal(b1-4)GlcNAc(b1-2)[Gal(b1-4)GlcNAc(b1-4)]Man(a1-3)[Gal(b1-4)GlcNAc(b1-2)[Gal(b1-4)GlcNAc(b1-6)]Man(a1-6)]Man(b1-4)GlcNAc(b1-4)GlcNAc
# How it was run: as §1
# [15] = molecular target: Gal(b1-4)GlcNAc(b1-2)[Gal(b1-4)GlcNAc(b1-4)]Man(a1-3)[GlcNAc(b1-4)][Gal(b1-4)GlcNAc(b1-2)Man(a1-6)]Man(b1-4)GlcNAc(b1-4)GlcNAc
# How it was run: as §1
# [16] = molecular target: Gal(b1-4)GlcNAc(b1-2)[Gal(b1-4)GlcNAc(b1-4)]Man(a1-3)[GlcNAc(b1-4)][Gal(b1-4)GlcNAc(b1-2)[Gal(b1-4)GlcNAc(b1-6)]Man(a1-6)]Man(b1-4)GlcNAc(b1-4)GlcNAc
# How it was run: as §1
# [17] = molecular target: Gal(b1-4)GlcNAc(b1-2)[Gal(b1-4)GlcNAc(b1-6)]Man(a1-6)[Gal(b1-4)GlcNAc(b1-2)Man(a1-3)]Man(b1-4)GlcNAc(b1-4)GlcNAc
# How it was run: as §1
# [18] = molecular target: Gal(b1-4)GlcNAc(b1-2)[Gal(b1-4)GlcNAc(b1-6)]Man(a1-6)[Gal(b1-4)GlcNAc(b1-2)Man(a1-3)]Man(b1-4)GlcNAc(b1-4)[Fuc(a1-6)]GlcNAc
# How it was run: as §1
# [19] = molecular target: Gal(b1-4)GlcNAc(b1-2)[Gal(b1-4)GlcNAc(b1-6)]Man(a1-6)[GlcNAc(b1-4)][Gal(b1-4)GlcNAc(b1-2)Man(a1-3)]Man(b1-4)GlcNAc(b1-4)GlcNAc
# How it was run: as §1
# [20] = molecular target: Gal(b1-4)GlcNAc(b1-2)[Gal(b1-4)GlcNAc(b1-6)]Man(a1-6)[GlcNAc(b1-4)][Gal(b1-4)GlcNAc(b1-2)[Gal(b1-4)GlcNAc(b1-4)]Man(a1-3)]Man(b1-4)GlcNAc(b1-4)[Fuc(a1-6)]GlcNAc
# How it was run: as §1
# [21] = molecular target: Gal(b1-4)GlcNAc(b1-3)Gal(b1-3)GalNAc
# How it was run: as §1
# [22] = molecular target: Gal(b1-4)GlcNAc(b1-3)Gal(b1-3)GlcNAc
# How it was run: as §1
# [23] = molecular target: Gal(b1-4)GlcNAc(b1-3)Gal(b1-4)Glc
# How it was run: as §1
# [24] = molecular target: Gal(b1-4)GlcNAc(b1-3)Gal(b1-4)GlcNAc
# How it was run: as §1
# [25] = molecular target: Gal(b1-4)GlcNAc(b1-3)Gal(b1-4)GlcNAc(b1-2)Man(a1-3)[Gal(b1-4)GlcNAc(b1-3)Gal(b1-4)GlcNAc(b1-2)Man(a1-6)]Man(b1-4)GlcNAc(b1-4)GlcNAc
# How it was run: as §1
# [26] = molecular target: Gal(b1-4)GlcNAc(b1-3)Gal(b1-4)GlcNAc(b1-2)Man(a1-3)[Gal(b1-4)GlcNAc(b1-3)Gal(b1-4)GlcNAc(b1-2)Man(a1-6)]Man(b1-4)GlcNAc(b1-4)[Fuc(a1-6)]GlcNAc
# How it was run: as §1
# [27] = molecular target: Gal(b1-4)GlcNAc(b1-3)Gal(b1-4)GlcNAc(b1-2)[Gal(b1-4)GlcNAc(b1-3)Gal(b1-4)GlcNAc(b1-6)]Man(a1-6)[Gal(b1-4)GlcNAc(b1-3)Gal(b1-4)GlcNAc(b1-2)Man(a1-3)]Man(b1-4)GlcNAc(b1-4)GlcNAc
# How it was run: as §1
binder,measurement,setting,value
B1,glycan array binding signal (z-score),Gal(b1-4)Glc6S,-0.292
same,glycan array binding signal (z-score),Gal(b1-4)GlcNAc,-0.452
same,glycan array binding signal (z-score),[1],-0.563
same,glycan array binding signal (z-score),Gal(b1-4)GlcNAc(b1-2)Man,1.2
same,glycan array binding signal (z-score),[2],0.096
same,glycan array binding signal (z-score),[3],-0.237
same,glycan array binding signal (z-score),[4],-0.371
same,glycan array binding signal (z-score),[5],-0.068
same,glycan array binding signal (z-score),[6],-0.027
same,glycan array binding signal (z-score),[7],-0.415
same,glycan array binding signal (z-score),[8],0.266
same,glycan array binding signal (z-score),[9],0.326
same,glycan array binding signal (z-score),[10],-0.133
same,glycan array binding signal (z-score),[11],-0.101
same,glycan array binding signal (z-score),[12],0.603
same,glycan array binding signal (z-score),[13],-0.482
same,glycan array binding signal (z-score),[14],-0.08
same,glycan array binding signal (z-score),[15],-0.066
same,glycan array binding signal (z-score),[16],-0.08
same,glycan array binding signal (z-score),[17],-0.097
same,glycan array binding signal (z-score),[18],-0.242
same,glycan array binding signal (z-score),[19],0.357
same,glycan array binding signal (z-score),[20],-0.162
same,glycan array binding signal (z-score),[21],-0.388
same,glycan array binding signal (z-score),[22],-0.114
same,glycan array binding signal (z-score),[23],-0.237
same,glycan array binding signal (z-score),[24],-0.439
same,glycan array binding signal (z-score),[25],4.98
same,glycan array binding signal (z-score),[26],-0.298
same,glycan array binding signal (z-score),[27],1.59
